Measured values from PMC4336329 (PLoS ONE, 2015).
The whole screen tested about 310,000 compounds, of which about 14,000 (4.5%) showed an effect of 50% or more. Effects have a minus sign here. Some of the results follow.

The compounds below were run against human ether-à-go-go-related gene (hERG) potassium channel (human, UniProt Q12809) (assay: primary screen, population patch clamp on CHO cells stably expressing hERG).
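Note: peak tail current of the secondary pulse compared with the same well before compound.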

human ether-à-go-go-related gene (hERG) potassium channel, sequence (Q12809 whole entry, looked up): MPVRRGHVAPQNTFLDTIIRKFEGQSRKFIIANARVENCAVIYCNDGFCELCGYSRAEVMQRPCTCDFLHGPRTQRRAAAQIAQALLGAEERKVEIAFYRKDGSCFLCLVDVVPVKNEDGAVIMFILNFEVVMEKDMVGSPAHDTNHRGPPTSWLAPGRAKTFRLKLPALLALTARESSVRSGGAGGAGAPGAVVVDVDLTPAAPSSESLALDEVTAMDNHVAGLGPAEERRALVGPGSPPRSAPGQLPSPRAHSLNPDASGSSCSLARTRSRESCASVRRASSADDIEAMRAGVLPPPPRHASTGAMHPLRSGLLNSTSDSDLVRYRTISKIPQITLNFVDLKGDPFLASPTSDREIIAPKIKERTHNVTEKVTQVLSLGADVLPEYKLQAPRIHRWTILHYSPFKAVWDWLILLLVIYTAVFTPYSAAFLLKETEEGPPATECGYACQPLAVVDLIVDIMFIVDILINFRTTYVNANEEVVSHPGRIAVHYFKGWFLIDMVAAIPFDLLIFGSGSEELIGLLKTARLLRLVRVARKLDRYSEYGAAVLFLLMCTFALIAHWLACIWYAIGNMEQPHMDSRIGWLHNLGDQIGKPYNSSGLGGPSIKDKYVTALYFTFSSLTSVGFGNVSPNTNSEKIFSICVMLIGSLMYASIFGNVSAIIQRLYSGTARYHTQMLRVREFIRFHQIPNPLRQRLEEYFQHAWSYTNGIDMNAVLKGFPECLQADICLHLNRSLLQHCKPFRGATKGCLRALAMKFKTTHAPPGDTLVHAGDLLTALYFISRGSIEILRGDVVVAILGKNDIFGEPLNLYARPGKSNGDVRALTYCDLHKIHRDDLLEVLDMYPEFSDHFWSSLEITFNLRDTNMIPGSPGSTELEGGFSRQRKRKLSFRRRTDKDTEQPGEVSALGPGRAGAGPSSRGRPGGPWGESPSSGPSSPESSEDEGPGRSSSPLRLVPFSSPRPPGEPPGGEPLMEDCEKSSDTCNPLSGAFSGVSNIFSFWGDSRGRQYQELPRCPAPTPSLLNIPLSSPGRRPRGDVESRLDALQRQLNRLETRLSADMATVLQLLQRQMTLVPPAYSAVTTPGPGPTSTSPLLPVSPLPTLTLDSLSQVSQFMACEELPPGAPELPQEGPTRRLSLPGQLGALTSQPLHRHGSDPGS

Compound | hERG current change (%, negative = inhibition) at 10uM [%]
CCN(C(=O)c1cccc(S(=O)(=O)N2CCc3ccccc32)c1)C1CCS(=O)(=O)C1 (stereo not drawn) | -18.2
O=C(COC(=O)c1ccc(OC(F)(F)F)cc1)NCCN1C(=O)CSC1=O | -36.7
COc1ccc(S(=O)(=O)NC(C)C(=O)N2CCCC2)cc1C (stereo not drawn) | 16.8
O=C(NCc1n[nH]c(=S)n1-c1cccc(C(F)(F)F)c1)c1ccc(S(=O)(=O)N2CCCCC2)cc1 | 16.5
Cc1ccc(NC(=O)c2ccccc2NC(=O)c2cccs2)cc1 | 20.1
Cn1nc(C(F)(F)F)c(-c2ccc(F)cc2)c1NC(=O)CSCC(=O)O | 4.94
C=CCN(CC=C)CCCOc1ccc(Br)cc1Cl | -30.2
CNC(=O)COC(=O)c1ccc(-c2nc3ccccc3s2)s1 | 4.63
Cc1cc(C)nc(SCc2ccc(C(=O)N/N=C/c3ccccc3C(=O)O)cc2)n1 | 6.57
C/C(=N\NC(=S)NC(C)C)c1ccccc1OC(F)F | 9.19
Cc1ccc2c(c1)N(CC(=O)NCC(C)c1ccccc1)C(=O)c1cccnc1O2 (stereo not drawn) | -1.79
CCCCn1c(N)c(N(CC(C)C)C(=O)CSCC(=O)Nc2ccc(OC)cc2)c(=O)[nH]c1=O | -7.53
CC(OC(=O)c1cc(-c2cccnc2)nc2ccccc12)C(=O)Nc1ccc2ccccc2c1 (stereo not drawn) | -2.38
CCN(CC)c1ccc(C(=O)OCC(=O)Nc2cccc(S(=O)(=O)NC3=NCCCCC3)c2)cc1 | 7.02
Cc1nn(-c2ccccc2)c(Cl)c1C(=O)Nc1ccc(N2CCOCC2)cc1 | -9.1
Cc1ccc(S(=O)(=O)N2CCN(C(=O)CSc3ccccn3)CC2)c(C)c1 | -26.5
CC(C)(C)n1nc2c(c1NC(=O)COc1ccc(Cl)cc1)CSC2 | -35.3
COC(=O)C1=C(c2ccc(OCc3ccccc3)cc2)C[C@@H]2CC[C@H]1N2C(=O)NCc1cccc(C(F)(F)F)c1 | 8.1
CCc1ccc(C(=O)Nc2ccc(C)c(NS(C)(=O)=O)c2)cc1 | 5.88
COC(=O)c1c(NC(=O)C(C)C)sc(C(=O)N2CCOCC2)c1C | 8.69
FC(F)(F)c1cccc(OCc2nnc3n2CCC3)c1 | 20.1
COc1cc(C(=O)Nc2nncs2)cc(OC)c1OC | 6.03

Compound | hERG current change (%, negative = inhibition) at 10uM [%]
O=C(Nc1ccc(S(=O)(=O)Nc2ncccn2)cc1)c1cccc(S(=O)(=O)N2CCCC2)c1 | -4.1
CC12CC(NC(=O)N1c1cccc(C(=O)N3CCN(c4ccccc4)CC3)c1)c1ccccc1O2 (stereo not drawn) | -11.7
CSc1nc(N)c2c(n1)OC(N)=C(C#N)C2c1cccnc1 (stereo not drawn) | -4
Cl.NCCSC1CC(=O)N(c2ccc(Cl)c(Cl)c2)C1=O (stereo not drawn) | 14.6
CN(CC(=O)Nc1ccc(F)c(F)c1)S(=O)(=O)c1cccs1 | -10.6
CC1CCN(C(=O)COC(=O)c2cc(Cl)c3c(c2)OCO3)CC1 | -7.67
CCCc1c(O)c2ccccc2n(-c2ccccc2)c1=O | 6.83
Oc1cccc(C2c3[nH]c4ccccc4c3CCN2Cc2cnn(-c3ccccc3)c2)c1 (stereo not drawn) | -35.3
CCCc1nnc(SCC(=O)N2CCCCC2C)n1CC1CCCO1 (stereo not drawn) | 2.84
CCN(CC(=O)Nc1ccc2c(c1)OCCO2)C(=O)/C=C/c1ccc(OC)cc1OC | -1.41
Cc1ccc(-c2cn(CCC(=O)O)c(-c3ccc(Cl)nc3)n2)cc1 | 10.9
COC(=O)C1=C(C(=O)OC)[C@@H]2Nc3ccccc3[C@@]23C[C@@H](C(=O)OC)N(C(=O)COCc2ccccc2)C3=N1 | -46.4
CCCNC(=O)C(Cc1ccc(Cl)cc1)NC(=O)c1ccc(C#N)cc1 (stereo not drawn) | -15.2
O=C(O)c1nc(NCc2ccccc2)ncc1Cl | 36.6
Cc1ccc(CNc2oc(C)nc2C#N)cc1 | -4.96
Cc1cccc(CCNCc2cc3cc(C)cc(C)c3[nH]c2=O)c1 | -30.8
Cc1ccc(C(C)C)c(OCC(=O)Nc2ccc(Cl)cn2)c1 | -8.82
Cc1cccc(N2CN(Cc3cccnc3)CNC2=S)c1C | 3.54
O=C(NNC(=O)c1cnccc1C(F)(F)F)c1cccc(Cl)c1 | 13.1
COc1ccc2cc(C3OCCO3)c(Cl)nc2c1 | 0.328
CCN(C(=O)c1ccc(S(=O)(=O)N2CCCC2)cc1)C1CCS(=O)(=O)C1 (stereo not drawn) | -4.5
CN(C)C=NC(=O)c1ccc(N2CCN(c3ncc(C(F)(F)F)cc3Cl)CC2)cc1 | 7.74

Compound | hERG current change (%, negative = inhibition) at 10uM [%]
O=C(Nc1ccccc1)c1ccc(S(=O)(=O)Nc2cccc(O)c2)cc1 | -37.8
C=CCN(CC=C)C(=O)c1ccc(OC2CCN(C(C)=O)CC2)c(OC)c1 | 14
C/C(CCc1ccc2c(c1)OCO2)=N\NC(=O)c1ccccc1Cl | -14.3
Cc1cc2oc(=O)cc(CN3CCN(Cc4ccccc4)CC3)c2cc1Cl | -22.8
COc1ccccc1N1CCN(C(=O)C(=O)N/N=C/c2ccccc2F)CC1 | -3.77
CC1CC(C)(C)CC2(C1)NC(=O)N(CC(=O)NCc1ccccc1F)C2=O (stereo not drawn) | -17.5
Cc1ccc(C(C(=O)NC(C)(C)C)N(C(=O)c2csnn2)C2CC2)cc1 (stereo not drawn) | 7.23
COc1ccccc1Nc1nc(N)nc(CN2CCN(c3ccccc3)CC2)n1 | -52.9
CCOC(=O)C1CCN(C(=O)CSCc2nc(-c3ccc(OCC)cc3)oc2C)CC1 | -33.4
COc1ccccc1NC(=O)c1sc2ncn(CC(=O)N3CCC(C)CC3)c(=O)c2c1C | 18.2
O=C1SCCc2c1n(Cc1ccccc1)c1ccccc21 | 2.89
COC(=O)c1sccc1NC(=O)c1cccc(Cl)c1 | -27.3
Cc1cccn2c(=O)c3cc(C(=O)NCCCn4ccnc4)n(C)c3nc12 | -11
COc1ccc(S(=O)(=O)Nc2ccc(S(=O)(=O)NCC3CCCO3)cc2)cc1 (stereo not drawn) | 6.4
CCCCc1nnc(NC(=O)CSCc2cc(=O)n3cc(C)sc3n2)s1 | 5.31
CC1C(=O)N2CCCc3cc(NC(=O)C(=O)NCCc4ccccc4)cc1c32 (stereo not drawn) | -10.8
CCOc1ccccc1NC(=O)/C=C/C(N)=O | 7.3
O=C(Nc1cccc(-n2cccn2)c1)C1CCCN(Cc2ccc(C#CCCO)cc2)C1 (stereo not drawn) | -42.4
Cc1cccn2c(CN3CCNC(=O)CC3)c(C(=O)N(C)CCc3ccccc3)nc12 | 6.33
CCc1ccc(OCC(=O)NNC(=O)c2nn(CC)c(=O)c3ccccc23)cc1 | -57.9
Cc1nc2ccc(S(=O)(=O)N(C)CC(=O)NCc3ccc(N(C)C)cc3)cc2s1 | -6.07
CCCCCNC(=O)CCc1ccccc1 | -0.256

Compound | hERG current change (%, negative = inhibition) at 10uM [%]
CC(=O)c1ccc(OCCCC(=O)Nc2ccc(S(=O)(=O)N3CCOCC3)cc2)cc1 | 3.37
Cc1ccc(S(=O)(=O)N(C)C)cc1NC(=O)COc1ccccc1C(=O)Nc1ccccc1 | -26.6
S=c1[nH]nc(-c2ccc3ccccc3n2)n1-c1ccc2c(c1)OCCO2 | 17.7
CCN1CCCC1CNCc1ccc(Cl)cc1Cl.Cl (stereo not drawn) | -64.6
Clc1ccc(CN2CCC(c3ccccc3)CC2)cc1 | -59.1
COc1cccc(OCc2cc(C(=O)NCC3CCCCC3)no2)c1 | 20.2
Cc1cccc2sc(NC(=O)C3c4ccccc4Oc4ccccc43)nc12 | 0.113
COc1cccc(-c2nnc(NC(=O)c3ccc(S(=O)(=O)N4CCOCC4)cc3)o2)c1 | -5.19
Cc1cc(OCc2nc(-c3cccs3)no2)cc(C)c1Cl | 17.8
COc1cc(C(CN)CC(=O)O)ccc1O.Cl (stereo not drawn) | 11.9
NC(=O)CCCn1c(C(=O)c2cc(Cl)c(N)c(Cl)c2)c2ccc(C(F)(F)F)cc2[n+]1[O-] | -41.1
COC(=O)C1C(=O)NC(SC)=C(C#N)C1c1ccccc1 (stereo not drawn) | 8.09
CC(C)n1nc(C(=O)NCCCN2CCCC2=O)c2ccccc2c1=O | 8.76
CNC(=O)CSCCn1c(SCC(=O)NC)nc2ccccc2c1=O | 13.1
CCOc1ccc(NC2=CC(=O)CCC2)cc1 | 15.1
COc1ccccc1C(=O)Nc1ccnn1C1CCN(Cc2ccn[nH]2)CC1 | -36.1
CCOC(=O)NC(=O)C(/C=N/c1sccc1C(=O)OC)=C(\C)O | -5.69
COc1cc(Cl)ccc1OCc1cc(C(=O)N2CCCCCCC2)no1 | 10.1
CCSc1ncc(C)cc1[N+](=O)[O-] | -7.74
NC1=NC(c2ccc(Cl)cc2)n2c(nc3ccccc32)N1 (stereo not drawn) | -3.14
COc1ccccc1N1CCN(C(c2ccc(Cl)cc2)c2nnnn2C(C)(C)C)CC1 (stereo not drawn) | 5.14
